Results taken from article PMC12751014, “Non-Catalytic Inhibitors of the p38/MK2 Interface: Repurposing Approved Drugs to Target Neuroinflammation in Alzheimer’s Disease” (Journal of Medicinal Chemistry, 2025).
No constants are given. Whether binding was seen depends on the method and setting. In cells and extracts the contact can be indirect. Some results given as binding are weak or reduced against the parent protein; the word gives no strength. For part of these data: Where a sequence is shown, tags or fusion partners need not be part of it.

Sequences of proteins named here, by UniProt entry; tags and fusion partners are left off.
UniProt Q15759: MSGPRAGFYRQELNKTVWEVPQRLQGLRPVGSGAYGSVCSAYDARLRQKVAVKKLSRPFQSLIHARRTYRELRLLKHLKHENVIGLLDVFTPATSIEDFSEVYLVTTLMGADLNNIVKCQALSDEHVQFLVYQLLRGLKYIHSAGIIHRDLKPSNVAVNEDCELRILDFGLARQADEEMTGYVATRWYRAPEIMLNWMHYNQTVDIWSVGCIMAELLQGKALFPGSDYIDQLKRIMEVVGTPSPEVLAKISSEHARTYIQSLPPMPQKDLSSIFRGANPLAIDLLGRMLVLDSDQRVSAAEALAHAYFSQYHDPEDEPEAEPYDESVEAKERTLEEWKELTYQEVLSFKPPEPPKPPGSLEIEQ
UniProt P49137: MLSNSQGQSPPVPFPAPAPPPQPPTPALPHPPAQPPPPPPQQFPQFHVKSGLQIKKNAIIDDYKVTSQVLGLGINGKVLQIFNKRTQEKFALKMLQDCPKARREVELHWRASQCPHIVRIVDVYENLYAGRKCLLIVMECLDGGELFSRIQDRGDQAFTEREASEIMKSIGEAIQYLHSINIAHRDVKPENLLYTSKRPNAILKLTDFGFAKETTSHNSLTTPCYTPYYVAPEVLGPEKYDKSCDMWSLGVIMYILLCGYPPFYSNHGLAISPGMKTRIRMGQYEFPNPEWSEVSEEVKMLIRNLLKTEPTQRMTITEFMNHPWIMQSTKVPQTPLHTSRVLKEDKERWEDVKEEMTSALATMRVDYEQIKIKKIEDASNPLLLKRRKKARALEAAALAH

Tests used:
[1] = biological target: T1, Venus-Flag (VF)-tagged p38δ expressed in HEK293T cells (UniProt O15264); assay: co-IP; Flag-immunoprecipitation (anti-Flag M2 magnetic beads) from lysates of HEK293T cells cotransfected with GST-MK2 and VF-p38 isoforms; 1% NP-40 buffer, 4 °C; Western blot
T1 sequence: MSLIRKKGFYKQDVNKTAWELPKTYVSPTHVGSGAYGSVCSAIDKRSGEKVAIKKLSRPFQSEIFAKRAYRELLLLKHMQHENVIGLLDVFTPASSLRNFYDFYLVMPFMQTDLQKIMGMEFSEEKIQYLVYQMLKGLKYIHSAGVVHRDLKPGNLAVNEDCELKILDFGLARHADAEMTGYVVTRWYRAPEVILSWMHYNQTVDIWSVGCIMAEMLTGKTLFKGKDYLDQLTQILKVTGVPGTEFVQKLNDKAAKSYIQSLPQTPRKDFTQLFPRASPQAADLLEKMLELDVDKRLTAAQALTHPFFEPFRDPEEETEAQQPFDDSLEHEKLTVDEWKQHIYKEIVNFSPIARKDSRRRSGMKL

[2] = biological target: Venus-Flag (VF)-tagged p38β expressed in HEK293T cells (UniProt Q15759); assay: as above
[3] = biological target: T2, Venus-Flag (VF)-tagged p38γ expressed in HEK293T cells (UniProt P53778); assay: as above
T2 sequence: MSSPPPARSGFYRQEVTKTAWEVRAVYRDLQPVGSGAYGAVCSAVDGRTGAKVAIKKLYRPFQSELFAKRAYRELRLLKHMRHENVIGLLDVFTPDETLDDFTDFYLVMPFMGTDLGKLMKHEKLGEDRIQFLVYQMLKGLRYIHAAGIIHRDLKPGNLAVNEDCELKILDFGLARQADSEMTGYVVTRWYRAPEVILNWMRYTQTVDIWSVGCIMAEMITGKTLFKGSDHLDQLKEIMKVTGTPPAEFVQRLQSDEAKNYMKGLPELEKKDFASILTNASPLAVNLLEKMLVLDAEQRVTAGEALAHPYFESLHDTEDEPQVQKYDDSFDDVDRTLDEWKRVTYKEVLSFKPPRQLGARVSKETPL

[4] = biological target: T1, Venus-Flag (VF)-tagged p38δ expressed in HEK293T cells; assay: FRET or BRET; TR-FRET in lysates of HEK293T cells cotransfected with VF-p38 isoforms and GST-MK2; anti-Flag-Tb and anti-GST-d2 antibodies; 20 mM Tris-HCl pH 7.0, 50 mM NaCl, 0.01% NP-40; room temperature; 384- and 1536-well formats
[5] = biological target: Venus-Flag (VF)-tagged p38β expressed in HEK293T cells (UniProt Q15759); assay: as above
[6] = biological target: T2, Venus-Flag (VF)-tagged p38γ expressed in HEK293T cells; assay: as above

Substance: GST-MK2 expressed in HEK293T cells (from UniProt P49137 1-400) (enzyme)
- binding [1]: no binding
- binding [2]: binds
- binding [3]: no binding
- binding [4]: no binding
- binding [5]: binds
- binding [6]: no binding
